According to the supplement of paper PMC11060735:
Counter-ions that a name gives are not always drawn. Out of some 1,800 compounds screened, about 50 (3%) showed activity. The list shows a part of the results.

tested on: mouse p16Ink4a+/- lung fibroblasts (INKBRITE, bleomycin-injured); test: percentage of GFP+ (p16Ink4a+) fibroblasts among all cells in well; higher = less depletion of p16Ink4a+ cells, active = 20 or less; conditions: 1 µM; 3 days
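Also: fibroblasts sorted 14 days after bleomycin, GFP+ and GFP− mixed 1:1 in 384-well plates (GFP− as in-well control), imaged after Hoechst and NucView530 staining, reference wells lacked compound.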

| Compound | percentage of GFP+ |
| --- | --- |
| Cc1cc(OCCCS(C)(=O)=O)cc(C)c1-c1cccc(COc2ccc3c(c2)OC[C@H]3CC(=O)O)c1 | inactive: 42.9% |
| CN(C)CC/C=C1/c2ccccc2Sc2ccc(Cl)cc21 [Chlorprothixene] | inactive: 51.2% |
| O=c1ccn([C@@H]2O[C@H](CO)[C@@H](O)[C@H]2O)c(=O)[nH]1 [Uridine] | inactive: 48.8% |
| Cn1c(Nc2ccc(C(F)(F)F)cc2)nc2cc(Oc3ccnc(-c4nc(C(F)(F)F)c[nH]4)c3)ccc21 | inactive: 37% |
| C=C1C(=O)O[C@@H]2/C=C(\C)CC/C=C(\C)CC[C@@H]12 [Costunolide] | inactive: 34.2% |
| OC[C@@H](O)[C@@H](O)[C@@H](O)CO [Ribitol] | inactive: 42.9% |
| CC1=NN(c2ccccc2)C(=O)C1 [3-methyl-1-phenyl-2-pyrazolin-5-one (mci-186), Edaravone] | inactive: 43.3% |
| Cc1nc(O)c(C#N)cc1-c1ccncc1 [Milrinone] | inactive: 37.8% |
| CC(C)c1cc(-c2ccc(F)c3ccccc23)nc(N)n1 | inactive: 48% |
| CC[C@H](Nc1ncnc2[nH]cnc12)c1nc2cccc(F)c2c(=O)n1-c1ccccc1 [Idelalisib] | inactive: 32.7% |
| NC(=O)c1cccc(N)c1 [3-aminobenzamide] | inactive: 39.9% |
| CC(C)(C)c1nc(-c2cccc(NS(=O)(=O)c3c(F)cccc3F)c2F)c(-c2ccnc(N)n2)s1 [Dabrafenib] | inactive: 23% |
| Cc1c(NC(=O)OC[C@@H]2COCCN2)cn2ncnc(Nc3ccc4c(cnn4Cc4cccc(F)c4)c3)c12 | inactive: 54.2% |
| CCCCCCCCCCCC[N+](C)(C)CCOc1ccccc1 [Domiphen] | inactive: 51.1% |
| COc1cc2ncnc(Oc3cccc(NC(=O)Nc4cc(C(C)(C)C(F)(F)F)on4)c3)c2cc1OC | inactive: 41.1% |
| CC[C@@H]1C(=O)N(C)c2cnc(Nc3ccc(C(=O)N[C@H]4CC[C@H](N5CCN(CC6CC6)CC5)CC4)cc3OC)nc2N1C(C)C [Volasertib] | inactive: 20.4% |
| CC(C(=O)O)c1ccc2c(c1)[nH]c1ccc(Cl)cc12 (stereo unspecified) [Carprofen] | inactive: 45.4% |
| CNC(=O)[C@H](Cc1c[nH]c2ccccc12)NC(=O)[C@@H](CC(=O)NO)CC(C)C | inactive: 41.5% |
| CN1CCN(c2nc(C3=C(c4c[nH]c5ccccc45)C(=O)NC3=O)c3ccccc3n2)CC1 [Sotrastaurin] | inactive: 50.7% |
| N#C/C(=C(/N)Sc1ccc(N)cc1)c1ccccc1C(F)(F)F | inactive: 47.9% |
| N=C(N)c1ccc(N=NNc2ccc(C(=N)N)cc2)cc1 [Diminazene] | inactive: 55% |
| O=C(O)/C(Cc1ccccc1[N+](=O)[O-])=N/Nc1nc(-c2ccc(Cl)c(Cl)c2)cs1 | inactive: 36.8% |
| O=c1cc(-c2cccc3c2Sc2ccccc2S3)oc(N2CCOCC2)c1 [ATM Kinase Inhibitor] | inactive: 50.2% |
| O=c1cc(-c2ccccc2)oc2cc(O)cc(O)c12 [Chrysin] | inactive: 43.8% |

| Compound | percentage of GFP+ |
| --- | --- |
| C[C@@H](Oc1cc(-c2cnn(C3CCNCC3)c2)cnc1N)c1c(Cl)ccc(F)c1Cl [Crizotinib] | inactive: 50.9% |
| S=C=Nc1cccc(NC(=S)NCCCCNC(=S)Nc2cccc(N=C=S)c2)c1 | inactive: 43.5% |
| Cc1cc2c(F)c(Oc3ncnn4cc(OC[C@@H](C)O)c(C)c34)ccc2[nH]1 [Brivanib] | inactive: 43.4% |
| CC(C)(Cc1ccc2ccccc2c1)NC[C@@H](O)COc1cccc(Cl)c1C#N | inactive: 36.6% |
| COc1ccc(Cl)cc1C(=O)NCCc1ccc(S(=O)(=O)NC(=O)NC2CCCCC2)cc1 [Glibenclamide, Glyburide] | inactive: 45.6% |
| O=c1c(O)c(-c2ccc(O)cc2)oc2cc(O)cc(O)c12 [Kaempherol] | inactive: 46.4% |
| CC[C@@H](CO)NCCN[C@@H](CC)CO [Ethambutol] | inactive: 46% |
| CCCCc1oc2ccccc2c1C(=O)c1cc(I)c(OCCN(CC)CC)c(I)c1 [Amiodarone] | inactive: 50.3% |
| COc1nc(C)nc(Cl)c1NC1=NCCN1 [Moxonidine, Moxonidine Hydrochloride] | inactive: 43.1% |
| CC(C)[N+]1(C)C2CCC1CC(OC(=O)C(CO)c1ccccc1)C2 (stereo unspecified) [Ipratropium Bromide] | inactive: 40.3% |
| CCN(CC)CCOc1ccc(/C(=C(\Cl)c2ccccc2)c2ccccc2)cc1 [Clomiphene] | inactive: 30.2% |
| O=c1sn(-c2cccc3ccccc23)c(=O)n1Cc1ccccc1 [Tideglusib] | inactive: 53% |
| N#Cc1c(O)nc2scc(-c3ccc(-c4ccccc4O)cc3)c2c1O | inactive: 51.1% |
| Cn1cc(/C=C2/C(=O)Nc3cccnc32)c2ccccc21 | inactive: 40.7% |
| CCC1=C(C)CN(C(=O)NCCc2ccc(S(=O)(=O)NC(=O)N[C@H]3CC[C@H](C)CC3)cc2)C1=O [Glimepiride] | inactive: 31.8% |
| OCCn1cc(-c2cnc3nnn(Cc4ccc5ncccc5c4)c3n2)cn1 | inactive: 41.7% |
| Nc1ncnc2c1ncn2[C@@H]1O[C@H](CO)[C@@H](O)[C@@H]1O [Vidarabine] | inactive: 34.7% |
| CCOc1ccc(NC(C)=O)cc1 [Phenacetin] | inactive: 46.1% |
| COc1cc(NC(C)CCCN)c2ncccc2c1 (stereo unspecified) [Primaquine] | inactive: 43.4% |
| CCc1cccc2c3c([nH]c12)[C@@](CC)(CC(=O)O)OCC3 [Etodolac] | inactive: 46.9% |
| Cc1cc(=O)oc2cc(O)ccc12 [7-hydroxy-4-methyl-2H-chromen-2-one] | inactive: 43.4% |
| C[C@@H]1O[C@@H](OC[C@H]2O[C@@H](Oc3c(-c4ccc(O)c(O)c4)oc4cc(O)cc(O)c4c3=O)[C@H](O)[C@@H](O)[C@@H]2O)[C@H](O)[C@H](O)[C@H]1O [Rutin] | inactive: 41.8% |
| C/C(=C\c1ccc(C(=O)O)cc1)c1ccc2c(c1)C(C)(C)CCC2(C)C | inactive: 42.2% |
| Cc1c(Cl)cccc1Nc1ccccc1C(=O)O [Tolfenamic Acid] | inactive: 40.1% |

| Compound | percentage of GFP+ |
| --- | --- |
| CCO/C(O)=C1\C(C)=NC(C)=C(C(=O)OC)C1c1cccc(Cl)c1Cl (stereo unspecified) [Felodipine] | inactive: 27.4% |
| C[N+](C)(C)CCOC(=O)CCC(=O)OCC[N+](C)(C)C [Succinylcholine] | inactive: 54.6% |
| COc1cc2ncc(-c3ccccc3)nc2cc1OC [Tyrphostin AG] | inactive: 53.2% |
| CC1(C)CCC(c2ccc(Cl)cc2)=C(CN2CCN(c3ccc(C(=O)NS(=O)(=O)c4ccc(N[C@H](CCN5CCOCC5)CSc5ccccc5)c(S(=O)(=O)C(F)(F)F)c4)cc3)CC2)C1 [Navitoclax] | inactive: 53% |
| CCOC(=O)[C@H](CCc1ccccc1)N[C@H]1CCCN2CCC[C@@H](C(=O)O)N2C1=O [Cilazapril] | inactive: 39.2% |
| CCOc1ccc2nc3cc(N)ccc3c(N)c2c1 [Ethacridine Lactate] | inactive: 52% |
| CC(C)c1nc(CN(C)C(=O)N[C@H](C(=O)N[C@@H](Cc2ccccc2)C[C@H](O)[C@H](Cc2ccccc2)NC(=O)OCc2cncs2)C(C)C)cs1 [Ritonavir] | inactive: 42% |
| CCOC(=O)c1ccc(N)cc1 [Benzocaine] | inactive: 52.1% |
| NC(=O)c1cccc(-c2cccc(OC(=O)NC3CCCCC3)c2)c1 | inactive: 41.3% |
| O=C(O)C1=CC(O)C(O)[C@H](O)C1 (stereo partly specified) [Shikimic Acid] | inactive: 30.8% |
| CNCc1ccc(-c2cc(-c3nc(-c4ccc(S(=O)(=O)C(C)C)cc4)cnc3N)on2)cc1 | inactive: 40% |
| NC[C@H]1CC[C@@H](C(=O)O)CC1 [Tranexamic Acid] | inactive: 45.5% |
| O=C(O)CCc1nc(-c2ccccc2)c(-c2ccccc2)o1 [Oxaprozin] | inactive: 46% |
| COc1cc(/C=C/C(=O)O)ccc1O [Ferulic Acid] | inactive: 43.1% |
| O=C(O[C@@H]1Cc2c(O)cc(O)cc2O[C@@H]1c1cc(O)c(O)c(O)c1)c1cc(O)c(O)c(O)c1 [Epigallocatechin-3-monogallate] | inactive: 40.6% |
| CCCCC1=NC2(CCCC2)C(=O)N1Cc1ccc(-c2ccccc2-c2nn[nH]n2)cc1 [Irbesartan] | inactive: 39.6% |
| N#Cc1ccc2[nH]cc(CCCCN3CCN(c4ccc5oc(C(N)=O)cc5c4)CC3)c2c1 [Vilazodone] | inactive: 44.8% |
| CC(C)=CCC[C@](C)(O[C@@H]1O[C@H](CO[C@@H]2OC[C@@H](O)[C@H](O)[C@H]2O)[C@@H](O)[C@H](O)[C@H]1O)[C@H]1CC[C@]2(C)[C@@H]1[C@H](O)C[C@@H]1[C@@]3(C)CC[C@H](O[C@@H]4O[C@H](CO)[C@@H](O)[C@H](O)[C@H]4O)C(C)(C)[C@@H]3CC[C@]12C [Gynostemma Extract] | inactive: 45.5% |
| C[C@H](NC(=O)/C(C#N)=C/c1cccc(Br)n1)c1ccccc1 | inactive: 43% |
| CN1CCC(=C2c3ccccc3CCc3cccnc32)CC1 [Azatadine] | inactive: 53.9% |
| COc1ccc([C@@H]2CC(=O)c3c(O)cc(O)cc3O2)cc1O [Hesperetin] | inactive: 47.8% |
| O=c1c(O)c(-c2ccc(O)cc2O)oc2cc(O)cc(O)c12 [Morin] | inactive: 42.4% |
| C[C@@H]1C/C=C/C=C/C=C/C=C/C(O[C@@H]2O[C@H](C)[C@@H](O)[C@H](N)[C@@H]2O)C[C@@H]2O[C@](O)(C[C@@H](O)C[C@H]3O[C@@H]3/C=C/C(=O)O1)C[C@H](O)[C@H]2C(=O)O (stereo partly specified) [Natamycin] | inactive: 41.6% |
